# Laboratory results reported in the supplement of paper PMC12217912.
# The list shows a part of the results. Sequences were assembled here from the parent chain. Values near 0.05 are background.
# B1: TEV protease; numbered along this chain (parent)
# chain: MGESLFKGPRDYNPISSSICHLTNESDGHTTSLYGIGFGPFIITNKHLFRRNNGTLVVQSLHGVFKVKDTTTLQQHLVDGRDMIIIRMPKDFPPFPQKLKFREPQREERICLVTTNFQTKSMSSMVSDTSCTFPSGDGIFWKHWIQTKDGQCGSPLVSTRDGFIVGIHSASNFTNTNNYFTSVPKNFMELLTNQEAQQWVSGWRLNADSVLWGGHKVFMVKPEEPFQPVKEATQL
# Variants of: B1
# Assay: raw area under fraction-flipped curve 0-4 h after induction (AUC4h, not background-subtracted), DNA-recorder readout of cleavage of the substrate (dimensionless); higher = more cleavage of the substrate by the protease variant
# Details: temperature: 34 °C; time window: 0-4 h after rhamnose induction
# Procedure: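 In vivo DNA recorder in E. coli TOP10(DE3) ΔrhaA at 34 °C. Each TEVp single-site mutant (parent TEVp 0) is paired with a single-site variant of the 7-mer TEVs (canonical ENLYFQ|S). The substrate sits between flexible linkers in a Bxb1-sfGFP-TEVs-SsrA fusion, so cleavage stabilises Bxb1 and speeds flipping of a recombination array, read by NGS. The value is the raw area under the fraction-flipped curve over 0-4 h after rhamnose induction (AUC4h), with ≥20 reads per time point. It is not background-subtracted; inactive controls average about 0.047.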
# 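Further: Bxb1 expression induced with 0.2% (w/v) L-rhamnose at OD600 near 0.5, cultures sampled hourly, flipped fraction per protease–substrate barcode pair counted by paired-end Illumina sequencing.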
variant,measurement,value
MGESLFKGPRDYNPISSSICHLTNESDGHTTSLYGIGFGPFIITNKHLFRRNNGTLVVQSLHGVFKVKDTTTLQQHLVDGRDMIIIRMPKDFPPFPQKLKFREPQREERICLVTTNFQTKSMSSMVSDTSCQFPSGDGIFWKHWIQTKDGQCGSPLVSTRDGFIVGIHSASNFTNTNNYFTSVPKNFMELLTNQEAQQWVSGWRLNADSVLWGGHKVFMVKPEEPFQPVKEATQL [T132Q],area with substrate ECLYFQS,0.083
same,area with substrate EELYFQS,0.0818
same,area with substrate EFLYFQS,0.0667
same,area with substrate EHLYFQS,0.12
same,area with substrate EILYFQS,0.0581
same,area with substrate EKLYFQS,0.0475
same,area with substrate ELLYFQS,0.0807
same,area with substrate EPLYFQS,0.0957
same,area with substrate ERLYFQS,0.0632
same,area with substrate ESLYFQS,0.0814
same,area with substrate EVLYFQS,0.0763
same,area with substrate EWLYFQS,0.0802
same,area with substrate EYLYFQS,0.0961
MGESLFKGPRDYNPISSSICHLTNESDGHTTSLYGIGFGPFIITNKHLFRRNNGTLVVQSLHGVFKVKDTTTLQQHLVDGRDMIIIRMPKDFPPFPQKLKFREPQREERICLVTTNFQTKSMSSMVSDTSCTCPSGDGIFWKHWIQTKDGQCGSPLVSTRDGFIVGIHSASNFTNTNNYFTSVPKNFMELLTNQEAQQWVSGWRLNADSVLWGGHKVFMVKPEEPFQPVKEATQL [F133C],area with substrate ECLYFQS,0.113
same,area with substrate EDLYFQS,0.117
same,area with substrate EELYFQS,0.103
same,area with substrate EGLYFQS,0.0977
same,area with substrate EILYFQS,0.0943
same,area with substrate EKLYFQS,0.0955
same,area with substrate EMLYFQS,0.113
same,area with substrate EQLYFQS,0.142
same,area with substrate EVLYFQS,0.0728
same,area with substrate EWLYFQS,0.089
same,area with substrate EYLYFQS,0.109
MGESLFKGPRDYNPISSSICHLTNESDGHTTSLYGIGFGPFIITNKHLFRRNNGTLVVQSLHGVFKVKDTTTLQQHLVDGRDMIIIRMPKDFPPFPQKLKFREPQREERICLVTTNFQTKSMSSMVSDTSCTVPSGDGIFWKHWIQTKDGQCGSPLVSTRDGFIVGIHSASNFTNTNNYFTSVPKNFMELLTNQEAQQWVSGWRLNADSVLWGGHKVFMVKPEEPFQPVKEATQL [F133V],area with substrate ECLYFQS,0.118
same,area with substrate EELYFQS,0.12
same,area with substrate EGLYFQS,0.122
same,area with substrate EHLYFQS,0.128
same,area with substrate EILYFQS,0.103
same,area with substrate EKLYFQS,0.113
same,area with substrate ELLYFQS,0.113
same,area with substrate EMLYFQS,0.114
same,area with substrate EQLYFQS,0.141
same,area with substrate ERLYFQS,0.155
same,area with substrate ESLYFQS,0.122
MGESLFKGPRDYNPISSSICHLTNESDGHTTSLYGIGFGPFIITNKHLFRRNNGTLVVQSLHGVFKVKDTTTLQQHLVDGRDMIIIRMPKDFPPFPQKLKFREPQREERICLVTTNFQTKSMSSMVSDTSCTFPGGDGIFWKHWIQTKDGQCGSPLVSTRDGFIVGIHSASNFTNTNNYFTSVPKNFMELLTNQEAQQWVSGWRLNADSVLWGGHKVFMVKPEEPFQPVKEATQL [S135G],area with substrate ECLYFQS,0.0922
same,area with substrate EELYFQS,0.104
same,area with substrate EHLYFQS,0.101
same,area with substrate EILYFQS,0.07
same,area with substrate EKLYFQS,0.0707
same,area with substrate ELLYFQS,0.0769
same,area with substrate EMLYFQS,0.0633
same,area with substrate EPLYFQS,0.0877
same,area with substrate EQLYFQS,0.0851
same,area with substrate ERLYFQS,0.0826
same,area with substrate ESLYFQS,0.0809
same,area with substrate EVLYFQS,0.0696
same,area with substrate EYLYFQS,0.0806
MGESLFKGPRDYNPISSSICHLTNESDGHTTSLYGIGFGPFIITNKHLFRRNNGTLVVQSLHGVFKVKDTTTLQQHLVDGRDMIIIRMPKDFPPFPQKLKFREPQREERICLVTTNFQTKSMSSMVSDTSCTFPVGDGIFWKHWIQTKDGQCGSPLVSTRDGFIVGIHSASNFTNTNNYFTSVPKNFMELLTNQEAQQWVSGWRLNADSVLWGGHKVFMVKPEEPFQPVKEATQL [S135V],area with substrate ECLYFQS,0.083
same,area with substrate EDLYFQS,0.0963
same,area with substrate EELYFQS,0.0927
same,area with substrate EFLYFQS,0.106
same,area with substrate EGLYFQS,0.0743
same,area with substrate EHLYFQS,0.0674
same,area with substrate EILYFQS,0.0887
same,area with substrate EKLYFQS,0.0594
same,area with substrate ELLYFQS,0.075
same,area with substrate EMLYFQS,0.0771
same,area with substrate EQLYFQS,0.0743
same,area with substrate EVLYFQS,0.0776
same,area with substrate EWLYFQS,0.0779
MGESLFKGPRDYNPISSSICHLTNESDGHTTSLYGIGFGPFIITNKHLFRRNNGTLVVQSLHGVFKVKDTTTLQQHLVDGRDMIIIRMPKDFPPFPQKLKFREPQREERICLVTTNFQTKSMSSMVSDTSCTFPSGDNIFWKHWIQTKDGQCGSPLVSTRDGFIVGIHSASNFTNTNNYFTSVPKNFMELLTNQEAQQWVSGWRLNADSVLWGGHKVFMVKPEEPFQPVKEATQL [G138N],area with substrate ECLYFQS,0.0695
same,area with substrate EELYFQS,0.101
same,area with substrate EILYFQS,0.083
same,area with substrate EKLYFQS,0.103
same,area with substrate ELLYFQS,0.1
same,area with substrate EMLYFQS,0.116
same,area with substrate ERLYFQS,0.0793
same,area with substrate ETLYFQS,0.0908
same,area with substrate EVLYFQS,0.0824
MGESLFKGPRDYNPISSSICHLTNESDGHTTSLYGIGFGPFIITNKHLFRRNNGTLVVQSLHGVFKVKDTTTLQQHLVDGRDMIIIRMPKDFPPFPQKLKFREPQREERICLVTTNFQTKSMSSMVSDTSCTFPSGDGWFWKHWIQTKDGQCGSPLVSTRDGFIVGIHSASNFTNTNNYFTSVPKNFMELLTNQEAQQWVSGWRLNADSVLWGGHKVFMVKPEEPFQPVKEATQL [I139W],area with substrate ECLYFQS,0.0897
same,area with substrate EDLYFQS,0.124
same,area with substrate EFLYFQS,0.0909
same,area with substrate EGLYFQS,0.0844
same,area with substrate EHLYFQS,0.0988
same,area with substrate EILYFQS,0.0926
same,area with substrate EKLYFQS,0.112
same,area with substrate EMLYFQS,0.0927
same,area with substrate EQLYFQS,0.118
same,area with substrate ERLYFQS,0.102
same,area with substrate ESLYFQS,0.0997
same,area with substrate ETLYFQS,0.106
same,area with substrate EVLYFQS,0.0893
same,area with substrate EWLYFQS,0.085
same,area with substrate EYLYFQS,0.0937
MGESLFKGPRDYNPISSSICHLTNESDGHTTSLYGIGFGPFIITNKHLFRRNNGTLVVQSLHGVFKVKDTTTLQQHLVDGRDMIIIRMPKDFPPFPQKLKFREPQREERICLVTTNFQTKSMSSMVSDTSCTFPSGDGIFCKHWIQTKDGQCGSPLVSTRDGFIVGIHSASNFTNTNNYFTSVPKNFMELLTNQEAQQWVSGWRLNADSVLWGGHKVFMVKPEEPFQPVKEATQL [W141C],area with substrate ECLYFQS,0.0678
same,area with substrate EELYFQS,0.0767
same,area with substrate EFLYFQS,0.0655
same,area with substrate EILYFQS,0.0792
same,area with substrate EKLYFQS,0.0523
same,area with substrate ELLYFQS,0.0545
same,area with substrate EMLYFQS,0.0954
same,area with substrate EPLYFQS,0.0543
same,area with substrate EQLYFQS,0.0762
same,area with substrate ERLYFQS,0.0899
same,area with substrate ESLYFQS,0.0653
same,area with substrate ETLYFQS,0.0628
same,area with substrate EVLYFQS,0.0543
same,area with substrate EWLYFQS,0.0489
